Test results reported in ChEMBL document CHEMBL4888484, “Replenishing the malaria drug discovery pipeline: Screening and hit evaluation of the MMV Hit Generation Library 1 (HGL1) against asexual blood stage Plasmodium falciparum ,using a nano luciferase reporter read-out” (2022).
In all, about 150,000 compounds went through this assay and about 540 (0.36%) showed an effect of 50% or more. Some of the results follow.

The compounds below were run on Plasmodium falciparum (assay: Primary screen in NF54 nanoGlo assay, in single point, at 2uM, 72h; a lower Z score goes with more inhibition). Conditions: timepoint 72 hour.
Assay type: functional, Erythrocyte

Row | Structure (SMILES) | % Inhibition [%] | Z score
1 | COc1ccc(N2CCN(C(=O)c3sc4nc(-c5ccc(F)cc5)cn4c3C)CC2)cc1 | -14 | 1.9
2 | CC1(C)CN(C(=O)C23CC(c4ccccc4)(C2)C3)[C@H]2COC[C@H]21 | -5 | 0.75
3 | CC(C)CN(CC(N)=O)C(=O)c1cc(F)cc(Br)c1F | 2 | -0.26
4 | CCC[C@@H](C(=O)NCCCOCC1CC1)N1CCN(C(=O)OC(C)(C)C)CC1 | 3 | -0.5
5 | C=CCN1CC2(CCC1=O)CCN(Cc1cccnc1)CC2 | 10 | -1.71
6 | CCC(=O)N1CCOC[C@]2(CN(Cc3ccccc3-c3ccco3)CCO2)C1 | -1 | 0.1
7 | C[C@H](N1CCN(C(N)=O)CC1)C(F)(F)F | -9 | 1.08
8 | CCOC(=O)[C@H]1CCCN(Cc2cncc(-c3ccccc3C)c2)C1 | -21 | 1.89
9 | O=C1N[C@H]2CCN(C(=O)c3ncoc3C3CC3)C[C@@H]2CO1 | -12 | 1.52
10 | COCC(=O)N(Cc1cccc(F)c1)c1ccc(CC(=O)NCc2ccncc2)cc1 | -4 | 0.37
11 | Cn1ccc2ccc(NC(=O)N3C[C@H](O)C(C)(C)C3)cc2c1=O | -7 | 0.94
12 | OCCN1CCN(C2CCN(Cc3sccc3Cl)CC2)CC1 | -15 | 2.24
13 | Cc1cc(C)c(NC(=O)CCCS(=O)(=O)Cc2cccc3ccccc23)c(C)c1 | -8 | 1.46
14 | COc1ccc(S(=O)(=O)NCCCn2c(-c3ccc(C)cc3)nc3cccnc32)cc1Cl | -5 | 0.68
15 | CNC(=O)[C@H](NC(=O)c1cc(-c2cc(C)oc2C)nc2onc(C)c12)c1ccccc1 | 24 | -3.03
16 | CCCn1ncc(C(=O)NCc2cnc3cnccn23)c1C | -12 | 1.34
17 | CN(C(=O)NCc1nc(C2CC2)no1)C1CCC(c2ccccc2)CC1 (stereo not drawn) | 1 | -0.15
18 | Cc1cc(F)ccc1[C@H]1C(=O)NCCN1C(=O)c1csc(CC(C)C)n1 | -11 | 1.73
19 | COc1cncc(C(=O)N2CCCc3c(C)ccc(F)c32)n1 | 2 | -0.2
20 | Cc1cc(F)ccc1NS(=O)(=O)c1c(C)[nH]c(-c2nnc(C3CC3)o2)c1C | -10 | 1.26
21 | COc1ccc(S(=O)(=O)N2CCN(Cc3c[nH]c(C)n3)CC2)cc1 | 0 | 0.02

Row | Structure (SMILES) | % Inhibition [%] | Z score
22 | O=C(c1ccc[nH]1)N1CCCN(C(=O)C2CC3CCC2C3)CC1 (stereo not drawn) | -8 | 0.69
23 | COC(=O)C(NC1CCCC(C(F)(F)F)C1)C(C)O (stereo not drawn) | -8 | 1.07
24 | Cc1ccc(NC(=O)N2CC[C@H](N(CCN3CCOCC3)S(C)(=O)=O)C2)cc1F | 3 | -0.48
25 | Cc1ccccc1OC1CCCCC1NC(=O)N1CCN(c2nncn2C)CC1 (stereo not drawn) | 12 | -1.52
26 | C#CCN(Cc1nc(-c2cccc(OC)c2OC)oc1C)C1CCCCC1 | -10 | 1.02
27 | COc1ccc(Br)cc1CN1C(=O)CCC1(C)C(=O)NC1CCCC(C)C1C (stereo not drawn) | -15 | 2.48
28 | c1ccc(-n2ncc3c(N4CCCN(C5CC5)CC4)ncnc32)cc1 | -1 | 0.2
29 | CC[C@H](O)CCNS(=O)(=O)c1c(F)cccc1OC(F)(F)F | 2 | -0.34
30 | CO[C@H]1CNC[C@@H]1Nc1nc(-c2ccccc2)nc2ccccc12 | 0 | -0.03
31 | CC(C)=CCC[C@@]1(C)CCC(=O)N(CCc2cc(O)nc(C)n2)C1 | -22 | 1.97
32 | CCn1ccnc1[C@H]1CCCN(C(=O)c2cc(F)cc(Cl)c2)C1 | -4 | 0.69
33 | CC(C)Oc1ccc(C2CCCC2NCC#N)cc1 (stereo not drawn) | -13 | 1.35
34 | COc1cccc2c1CC[C@]2(N)C(=O)N(C)Cc1cnccn1 | -3 | 0.65
35 | O=C(CC1(O)CCC1)N1CCCC[C@H]1c1ccco1 | -9 | 1.12
36 | CC(C)CCN(c1ncccn1)C1CCCC1 | -3 | 0.4
37 | O=C(C[C@H](c1c[nH]c2ccc(Cl)cc12)C1CCCCC1)NCc1ccccc1 | 7 | -0.9
38 | C#CCOC[C@@H](O)CN(Cc1c(C)nn(-c2ccccc2)c1Oc1cccc(C)c1)CC1CC1 | -12 | 1.9
39 | O=C(COc1ccc(-c2ccccc2)cc1)N1CC[C@H](OCC2CC2)C1 | -15 | 2.27
40 | C[C@@H](Cc1cnccn1)N(C)C(=O)c1cc(C(F)(F)F)ccc1Cl | -3 | 0.43
41 | CC(C)(C)c1nn(Cc2ccc(C#N)cc2OC(F)F)c(O)c1CCC#N | 0 | -0.03
42 | CCN(Cc1cnc(NC[C@H]2CCCO2)nc1)Cc1nccn1C | 0 | -0.05

Row | Structure (SMILES) | % Inhibition [%] | Z score
43 | O=C1CCCN1c1ccc(CNS(=O)(=O)N2CCOCC2)cc1 | -13 | 2.51
44 | C[C@@H](Cn1cncn1)Nc1ccc(C(N)=O)cn1 | 7 | -0.87
45 | O=C(NC[C@H]1CCCC2(CCC2)O1)Nc1cc2cc[nH]c2cn1 | 1 | -0.09
46 | C[C@H](NCc1ccc2c(c1)CCO2)c1cc(Cl)c(N)c(Cl)c1 | 20 | -2.28
47 | O=C([C@H]1CCCO1)N1C[C@@H]2[C@@](C(F)(F)F)(CCCS2(=O)=O)C1 | -5 | 0.96
48 | O=C1CCN(C(=O)C2CCC(O)CC2)CCN(c2nc(C(F)F)nc3ccc(Cl)cc23)CCN1 (stereo not drawn) | -16 | 1.45
49 | C=CCNS(=O)(=O)c1ccc(C(=O)N2CCC3(CCC3)C2)cc1 | -11 | 1.46
50 | CC(C)(C)OC(=O)CNC(=O)[C@@H]1CCCO1 | -4 | 0.54
51 | O=C(O)c1nc(N2CCC([C@@H](O)CCc3ccccc3)CC2)ccc1Cl | 1 | -0.31
52 | CC1CCc2c(F)cccc2C1NC(=O)C1CC1C(=O)O (stereo not drawn) | 0 | -0.06
53 | O=C(Cc1ccccc1Br)NCc1nnc2n1CC[C@H](C(F)(F)F)C2 | -5 | 0.62
54 | COC(=O)c1[nH]c(C)cc1NC(=O)C1=CCCCCC1 | 37 | -0.83
55 | Cn1ncc2c(=O)[nH]c(CN(CC(N)=O)C3CCCC3)nc21 | -3 | 0.54
56 | COc1cccc(C(=O)Cn2c(=O)n(CCCS(=O)(=O)C3CCCCC3)c(=O)c3ccccc32)c1 | 1 | -0.11
57 | O=C1CO[C@@H](COc2ccc(F)cc2)CN1C1CCN(CCn2ccnc2)CC1 | -14 | 1.42
58 | c1cncc(COC2CCN(c3ncnc4[nH]ccc34)CC2)c1 | -7 | 0.87
59 | COC(=O)c1cn(CCc2nc(COc3ccc(OC)cc3)no2)cc2c(O)nnc1-2 | -2 | 0.32
60 | O=C(c1cc(=O)[nH]c2ccc(F)cc12)N1CCCCCCC1 | 16 | -1.64
61 | CCCN1C(=O)c2c(C(=O)OC)ncn2C[C@@]1(C)C(=O)NCc1ccc(F)cc1 | -1 | 0.1
62 | COCCn1cnnc1CN[C@@H](C)Cn1cnc2ccccc2c1=O | -5 | 0.63
63 | O=C(c1cc2c(s1)CCC2)N1CCN(c2nccs2)CC1 | -3 | 0.25

Row | Structure (SMILES) | % Inhibition [%] | Z score
64 | Fc1ccccc1OCCn1cnc(-c2ccccc2)c1-c1ccncc1 | -10 | 1.8
65 | CC(NC(=O)c1ccc(=O)n(C)c1)C1CC1c1ccccc1 (stereo not drawn) | -5 | 0.75
66 | Cc1cc(Cl)ccc1-n1nc(C)c([C@@H]2C=C[C@@H](NC(=O)CCC(=O)O)C2)c1C | 22 | -2.44
67 | Cc1ccc(C(=O)N2CCN(C(=O)NC[C@H](C)c3nccs3)CC2)cc1 | -11 | 1.09
68 | CC1(C)CC(O)(C(=O)Nc2ccc(CCS(C)(=O)=O)cc2)C1 | -6 | 1.17
69 | COc1ccc(-c2nnc(-c3nc(NCc4ccc5c(c4)OCO5)c4ccccc4n3)o2)cc1 | -7 | 1.27
70 | CC1(NCCOC2CCCCO2)CCOC1C1CC1 (stereo not drawn) | -10 | 1.49
71 | CC(C)N1CCCC(CNC(=O)NC2CCCc3occc32)C1 (stereo not drawn) | -3 | 0.52
72 | Cn1c(=O)c2c(c3ccccc31)OC(C)(CO)C(O)C2 (stereo not drawn) | -6 | 0.78
73 | COCCCNCCOCCOc1cc(C)c(Cl)c(C)c1 | 3 | -0.64
74 | COC(CN1CC[S@+]([O-])C(C)(C)C1)OC | -13 | 1.81
75 | CCN(C[C@H]1COc2ccccc2O1)C(=O)c1ccc(Cl)o1 | -11 | 0.96
76 | Cn1c(CO)nnc1C1CCN(C(=O)c2cccc(-c3ccccc3F)c2)CC1 | -5 | 0.93
77 | O=C(Nc1nnc[nH]1)c1csc(S(=O)(=O)N2CCc3ccccc3C2)c1 | -15 | 1.97
78 | CCOC(=O)CCNC(=O)c1cc(C[C@H](C)c2ccccc2)no1 | -18 | 3.28
79 | O=C(CCOC1CCOCC1)N(c1ccccc1)C1CCCCC1 | 3 | -0.3
80 | COCCCC1(CN(C)Cc2cc(C)on2)CCC1 | 7 | -1.1
81 | CNC(=O)c1ccc(CNC(=O)N2CC(O)C2)cc1 | -4 | 0.71
82 | N#Cc1cc(C(=O)Nc2ncccc2-c2ccccc2)ccc1F | 14 | -1.8
83 | COc1ccc(C)cc1NC(=O)C12CCC(C)(C(=O)C1=O)C2(C)C (stereo not drawn) | -5 | 0.66
84 | CC(C)c1cc(C(=O)N2CCn3c(C(N)=O)cnc3C2)cs1 | -7 | 1.24
